{"source": "the CheMixHub viscosity set", "note": "± gives the uncertainty stated by the source. A number of entries come with more than one value. They are shown here; other results are not. The source may hold further records. Values that stand side by side are repeats across runs, samples, wells, individuals or studies. What stands in brackets tells the records apart. Letters count within one entry.", "data": [{"smiles": "CC(C)O", "values": [{"measurement": "viscosity", "setting": "293.15 K, 101 kPa", "result": "2.439 ± 0.052 mPa·s [study A] and 2.47 ± 0.07 mPa·s [study B] and 2.437 ± 0.022 mPa·s [study C] and 2.444 ± 0.074 mPa·s [study D]"}, {"measurement": "viscosity", "setting": "293.15 K, 101.33 kPa", "result": "2.543 ± 0.025 mPa·s [study A] and 2.397 ± 0.051 mPa·s [study B] and 2.396 ± 0.05 mPa·s [study C] and 1.7 ± 0.029 mPa·s [study D]"}, {"measurement": "viscosity", "setting": "298.15 K, 101 kPa", "result": "2.009 ± 0.026 mPa·s, 2.093 ± 0.064 mPa·s, 2.094 ± 0.019 mPa·s, 1.995 ± 0.015 mPa·s, 2.089 ± 0.033 mPa·s, 1.985 ± 0.089 mPa·s, 2.134 ± 0.045 mPa·s, 2.089 ± 0.037 mPa·s, 2.031 ± 0.027 mPa·s, 1.991 ± 0.053 mPa·s [several studies]"}, {"measurement": "viscosity", "setting": "303.15 K, 101 kPa", "result": "1.845 ± 0.039 mPa·s [study A] and 1.734 ± 0.079 mPa·s [study B] and 1.547 ± 0.023 mPa·s [study C] and 1.654 ± 0.04 mPa·s [study D]"}, {"measurement": "viscosity", "setting": "308.15 K, 101 kPa", "result": "1.603 ± 0.034 mPa·s [study A] and 1.482 ± 0.069 mPa·s [study B] and 1.178 ± 0.018 mPa·s [study C] and 1.494 ± 0.037 mPa·s [study D]"}]}]}
